# Among all 360,000 compounds or so, about 6,000 (1.7%) were called active. The inconclusive results got no clear call from the source; some entries with a clear call stand among them for comparison. Calls follow the shape of the dose curve; as a rule, active = well fitted cell-killing curve with a large enough effect; inconclusive = small, poorly fitted or top-dose-only effect, or effect the other way; inactive = flat fitted curve, though single readings scatter. No potency is given beside an inconclusive call; the fits are too rough.
# Experiment: qHTS for induction of synthetic lethality in tumor cells producing 2HG: qHTS for the HT-1080-NT fibrosarcoma cell line;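 also: NT is the 2HG producing partner of a matched IDH1 knockdown line; nearly all actives have a fitted effect of over 55% in size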;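 as to activity, negative = less viability: 0% = DMSO-treated cells and -100% = media-only wells without cells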
# Conditions: HT-1080-NT fibrosarcoma viability, CellTiter-Glo ATP luminescence, 48 h; activity, negative = less viability: at 46.1 µM (top of the series) unless noted
# How it was run: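 Fibrosarcoma NT cells, 750 per well in 5% FBS RPMI, were exposed to compound for 48 hours. Viability: CellTiter-Glo luminescence.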
# Potency is read from the fitted curve at half-maximal effect; tags tell the direction and shape of the fitted curve.
Compound,Potency,"activity, negative = less viability"
Cc1ccccc1OCC(=O)NNC(=S)NC(=O)c1ccco1,"inconclusive [cytotoxic, partial curve]",
CCc1nc(SCC(=O)Nc2ccccc2Cl)n[nH]1,,inactive: 4.59%
O=C(Nc1ncc(Br)s1)C(Cc1ccccc1)n1cccc1 (stereo not drawn),active: 25.9 µM,
CN(c1ccc2nc3ccccc3c(=O)n2n1)C1CCCCC1,"inconclusive [cytotoxic, single point]",
COc1ccccc1/C=C/C(=O)OCCCN(C)C,,inactive: -2.43%
CCCCc1c(-c2cccc(F)c2)ncn1CCc1ccccc1OC,"inconclusive [cytotoxic, single point]",
COc1ccc(-c2cc(C(=O)Nc3cc(Cl)ccc3O)no2)cc1,,inconclusive: 24.5%
COc1cc(C(=O)N2CCCCC2c2cc(C(=O)Nc3ccccc3Cl)no2)cc(OC)c1C (stereo not drawn),"inconclusive [cytotoxic, single point]",
Cc1ccc(CNC(=O)c2ccc([N+](=O)[O-])o2)cc1,"inconclusive [cytotoxic, single point]",
CCN(CC(=O)NCc1cccs1)C(=O)/C=C/c1ccc(OC)c(OC)c1,,inactive: -0.989%
O=C(CCl)Nc1cn(-c2ccccc2)nc1-c1ccccc1,"inconclusive [cytotoxic, single point]",
O=C(NCc1ccc(F)cc1)c1ccc(S(=O)(=O)N2CCCC2)cc1,,inactive: -1.97%
O=C(CCl)c1ccc2c(c1)CCN2C(=O)C1CCCCC1,active: 23.1 µM,
Cn1cc(-c2coc3c(C(=O)NCc4cccs4)cccc23)cn1,,inactive: 8.39%
CN(C)c1ccc(/C=C(\C#N)c2ccccc2)cc1,active: 11.6 µM,
O=C(O)CCc1ccc(-c2ccc(Cl)cc2)n1CCC(=O)O,"inconclusive [cytotoxic, single point]",
COc1cc(/C=N/NC(=O)c2cc(-c3cccc(Br)c3)nc3ccccc23)cc(OC)c1O,"inconclusive [cytotoxic, single point]",
Cc1ccc2[nH]c(C(=O)N/N=C/c3ccccc3C(=O)O)c(-c3ccccc3)c2c1,"inconclusive [cytotoxic, single point]",
O=C(c1[nH]ncc1-c1ccccc1)C1CO1 (stereo not drawn),"inconclusive [cytotoxic, partial curve]",
CCN(Cc1nc2ccccc2c(=O)[nH]1)C(=O)c1cccc(OCc2c(C)noc2C)c1,"inconclusive [cytotoxic, single point]",
COc1cc(OC)c(-c2nc(-c3ccncc3)no2)cc1OC,,inactive: 2.75%
Cc1cccc(N/N=C/c2ccc(C)s2)c1,,inactive: -3.49%
COCCCNC(=O)c1cccc2c(-c3ccc(OC)cc3C)coc12,"inconclusive [cytotoxic, single point]",
COc1cccc(NC(=O)N(C2CCCCC2)C(C)c2cccs2)c1 (stereo not drawn),"inconclusive [cytotoxic, single point]",

Compound,Potency,"activity, negative = less viability"
O=C(NC(NC(=S)Nc1ccccc1)C(Cl)(Cl)Cl)c1cccc(Cl)c1 (stereo not drawn),"inconclusive [cytotoxic, single point]",
Cc1ccc(S(=O)(=O)Nc2ccc(Cl)cc2O)cc1,"inconclusive [cytotoxic, single point]",
CCCCCOc1ccc(Br)cc1/C(C)=N/NC1=NCCN1,active: 6.51 µM,
CCCOc1ccc(C(O)(CCN2CCCCC2)c2ccccc2OC)cc1 (stereo not drawn),"inconclusive [cytotoxic, single point]",
Cc1cccc(-n2c(SCC(=O)Nc3ncc(Cl)cc3Cl)nc3ccccc32)c1,"inconclusive [cytotoxic, single point]",
COc1ccc(-c2ccc(CCC(=O)O)n2CC(C)C)cc1,"inconclusive [cytotoxic, single point]",
O=C(Nc1nnc(C2CC2)o1)c1ccc(S(=O)(=O)N2CCCc3ccccc32)cc1,"inconclusive [cytotoxic, full curve]",
COc1c(C)cc(C(O)c2ncc(-c3ccc(C(F)(F)F)cc3)[nH]2)cc1C (stereo not drawn),"inconclusive [cytotoxic, single point]",
COc1cccc2cc(-c3cn4cccc(C)c4n3)c(=O)oc12,,inconclusive: 30.3%
CSc1nsc(SC)c1C(=O)O,"inconclusive [rising, single point]",
O=C(N/N=C/c1c(Cl)cccc1Cl)c1ccc(F)cc1,,inactive: 17.5%
CCN(CC)c1ccc(NS(=O)(=O)c2ccc3c(c2)oc(=O)n3C)c(C)c1,,inactive: -16.5%
Cc1ccccc1COc1ccc(-c2nnn(CC(=O)O)n2)cc1,"inconclusive [rising, single point]",
N#Cc1c(N)nc(SCc2ccncc2)c(C#N)c1-c1cccs1,"inconclusive [cytotoxic, single point]",
Cc1ccc2[nH]c(=O)c(-c3nc4cc(C)ccn4c3NCc3ccco3)cc2c1,"inconclusive [cytotoxic, single point]",
CC(C)c1ccc(C(N)=S)cc1,,inactive: 15.8%
C=CCn1c(C)cc(C(=O)Cn2ncc(Cl)c(Cl)c2=O)c1C,"inconclusive [cytotoxic, partial curve]",
COC(=O)c1ccccc1NC(=O)C1CC(=O)N(c2ccc(OC)cc2)C1 (stereo not drawn),"inconclusive [cytotoxic, single point]",
N#Cc1c2ccc(OCC(N)=O)cc2n2ccccc12,"inconclusive [cytotoxic, single point]",
O=C(Nc1ccc(Cl)cn1)C1CCN(c2ncnc3c2nc2n3CCCCC2)CC1,"inconclusive [cytotoxic, single point]",
Cc1ccc(S(=O)(=O)Nc2ccc(S(=O)(=O)N3CCOCC3)cc2)cc1,,inactive: -9.92%
CS(=O)(=O)c1ccc(S(=O)CC(=O)OCc2ccccc2)c([N+](=O)[O-])c1 (stereo not drawn),active: 5.8 µM,
COC(=O)c1cc(=O)nc(NN=Cc2ccc(OC)cc2)s1,"inconclusive [rising, single point]",
CN(C)S(=O)(=O)c1ccc(NC(=O)CN2CCN(C(c3ccccc3)c3ccccc3)CC2)cc1,,inactive: -4.78%
